Test results as given in the supplement of paper PMC8291772.
± gives the standard error. Some of the results follow.

biological target: terminal deoxynucleotidyl transferase (calf thymus) (UniProt P06526); test: TdT poly-dT extension signal (Cy3 hybridisation fluorescence, uncapped minus capped) (fluorescence a.u.); higher = more efficient initiation of TdT extension; details: initiator chemistry: 2'-O-methyl-RNA, free 3'-OH (5'-tethered via HEG linker)
Procedure: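 All mono- to pentamer 2'-O-methyl-RNA initiators were made by photolithographic in situ synthesis (3'-NPPOC amidites, reverse direction, free 3'-OH) on glass on a hexaethylene glycol linker. Each was made in uncapped and DMTr-dT-capped versions, about 11 replicates each. Arrays were extended with calf thymus TdT (0.2 U/uL), 100 uM dTTP and 0.25 mM CoCl2 for 120 min at 37 C, hybridised with an rA18-Cy3 probe and scanned at 532 nm. The value is the mean uncapped minus the mean capped signal. IDs are written 3'->5' and are reversed to 5'->3'; all nucleotides are 2'-OMe.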

Sequence of UniProt P06526 (P06526 whole entry): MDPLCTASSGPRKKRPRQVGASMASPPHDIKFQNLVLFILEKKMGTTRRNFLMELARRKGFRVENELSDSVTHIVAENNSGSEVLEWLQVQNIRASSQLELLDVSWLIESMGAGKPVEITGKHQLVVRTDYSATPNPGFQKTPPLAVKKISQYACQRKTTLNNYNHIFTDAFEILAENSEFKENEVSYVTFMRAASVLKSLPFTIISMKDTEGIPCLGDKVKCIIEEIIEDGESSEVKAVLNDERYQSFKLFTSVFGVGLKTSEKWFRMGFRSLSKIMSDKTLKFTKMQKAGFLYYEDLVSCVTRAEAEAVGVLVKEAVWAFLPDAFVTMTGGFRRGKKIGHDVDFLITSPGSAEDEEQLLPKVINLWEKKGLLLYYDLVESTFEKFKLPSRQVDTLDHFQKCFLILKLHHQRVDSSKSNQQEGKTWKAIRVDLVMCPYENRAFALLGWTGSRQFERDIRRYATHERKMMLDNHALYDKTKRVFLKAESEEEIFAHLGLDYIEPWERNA

Row | Sequence | TdT poly-dT extension signal
1 | UCCAA | 976 ± 50
2 | AGAA | 990 ± 120
3 | CUCAG | 488 ± 37
4 | GCUAA | 706 ± 63
5 | AAGUA | 513 ± 45
6 | UGAUG | 151 ± 12
7 | GUAAC | 558 ± 40
8 | GUUGA | 369 ± 18
9 | CCGGG | 270 ± 27
10 | UCUUG | 211 ± 29
11 | AAAUC | 471 ± 28
12 | GCAC | 752 ± 62
13 | GCAGC | 1060 ± 59
14 | AGUGA | 443 ± 32
15 | UUUCG | 131 ± 6.9
16 | UGGUU | 267 ± 14
17 | AUAAU | 413 ± 31
18 | GUUC | 472 ± 64
19 | GAUU | 241 ± 15
20 | UGGCA | 337 ± 28
21 | GGGG | 428 ± 23
22 | AUCAA | 779 ± 54
23 | AACAG | 567 ± 34
24 | CCAU | 489 ± 37
25 | GAAUA | 579 ± 39

Row | Sequence | TdT poly-dT extension signal
26 | GGACU | 318 ± 51
27 | GCGCG | 416 ± 69
28 | UGAGA | 565 ± 46
29 | CGAUA | 591 ± 49
30 | GCGC | 946 ± 73
31 | AGACC | 484 ± 42
32 | UAGAC | 713 ± 53
33 | UCUA | 508 ± 41
34 | ACGCU | 411 ± 67
35 | GACGU | 375 ± 38
36 | CCAA | 1060 ± 95
37 | AGGCC | 484 ± 40
38 | GCAGA | 846 ± 100
39 | CGUGG | 249 ± 16
40 | GGCUA | 621 ± 50
41 | AACC | 465 ± 17
42 | ACAUU | 297 ± 21
43 | UGUGC | 1360 ± 95
44 | CCCGU | 537 ± 48
45 | GCUCA | 368 ± 32
46 | CACAU | 469 ± 23
47 | AGUCC | 475 ± 37
48 | ACAAA | 1170 ± 100
49 | GGUA | 376 ± 23
50 | AAAGA | 848 ± 45

Row | Sequence | TdT poly-dT extension signal
51 | GGAUG | 194 ± 18
52 | GCAAC | 935 ± 81
53 | UGCA | 390 ± 33
54 | CCCA | 424 ± 53
55 | GAUGU | 324 ± 40
56 | CCGGA | 551 ± 52
57 | UUUC | 341 ± 23
58 | AAGAU | 506 ± 39
59 | CAGUU | 356 ± 28
60 | CUCCA | 413 ± 57
61 | CUGGG | 263 ± 31
62 | CUCUU | 266 ± 14
63 | CCUAU | 363 ± 16
64 | GUUUA | 322 ± 47
65 | CCUGA | 403 ± 24
66 | UUAUG | 142 ± 12
67 | AGGAU | 433 ± 28
68 | AGCUG | 299 ± 29
69 | UCCA | 384 ± 29
70 | UUCAA | 986 ± 56
71 | CGGC | 808 ± 38
72 | GCCCU | 315 ± 31
73 | CUCGC | 1080 ± 64
74 | AGCCA | 324 ± 16
75 | GAGC | 1040 ± 49

Row | Sequence | TdT poly-dT extension signal
76 | GUGGG | 354 ± 38
77 | CUGCU | 342 ± 29
78 | CAUUG | 172 ± 14
79 | GAUUU | 219 ± 20
80 | UCGUC | 472 ± 19
81 | ACACG | 365 ± 26
82 | AUUAC | 389 ± 26
83 | AUACC | 330 ± 28
84 | GAAA | 879 ± 110
85 | AUCCU | 305 ± 24
86 | UUGCG | 233 ± 25
87 | AGUGG | 280 ± 18
88 | AAAGC | 1270 ± 67
89 | GGAUC | 487 ± 52
90 | CAGAC | 698 ± 45
91 | AUGCC | 528 ± 35
92 | GCCG | 192 ± 16
93 | UGGUA | 391 ± 20
94 | AGACG | 307 ± 21
95 | ACCUA | 571 ± 34
96 | CCUAG | 353 ± 33
97 | AUCA | 332 ± 18
98 | CACAG | 535 ± 36
99 | CAAUU | 301 ± 30
100 | CUACC | 316 ± 29

Row | Sequence | TdT poly-dT extension signal
101 | GAGAU | 514 ± 56
102 | UAGUA | 541 ± 42
103 | CUUAG | 296 ± 21
104 | GUCAG | 364 ± 37
105 | AAAAC | 736 ± 43
106 | CGUU | 237 ± 21
107 | ACACC | 533 ± 73
108 | CGGCC | 713 ± 120
109 | UGAU | 380 ± 24
110 | UAAGG | 350 ± 28
111 | CAGG | 485 ± 57
112 | GGAGG | 415 ± 33
113 | AUUG | 158 ± 20
114 | CUCCG | 194 ± 14
115 | UAGAG | 533 ± 46
116 | CCAAC | 725 ± 53
117 | GAAG | 447 ± 35
118 | UAGUG | 189 ± 14
119 | ACCUG | 304 ± 18
120 | UGCG | 251 ± 32
121 | GCGUU | 366 ± 27
122 | CACCC | 485 ± 45
123 | CGUC | 478 ± 43
124 | GUCCU | 309 ± 25
125 | UCCUC | 481 ± 42

Row | Sequence | TdT poly-dT extension signal
126 | UGUCA | 286 ± 22
127 | UGUAG | 271 ± 17
128 | UGGG | 269 ± 16
129 | CCACA | 344 ± 26
130 | GCUGC | 920 ± 65
131 | GGUUA | 402 ± 32
132 | GCUCC | 410 ± 31
133 | UUGG | 177 ± 12
134 | AAUAC | 583 ± 71
135 | UUCUU | 275 ± 14
136 | CUACA | 270 ± 28
137 | GAUGA | 482 ± 31
138 | AUAAG | 392 ± 34
139 | AAGU | 529 ± 29
140 | UCAA | 786 ± 31
141 | GAGCG | 270 ± 29
142 | ACUCG | 256 ± 14
143 | ACCUU | 331 ± 34
144 | UGACG | 235 ± 17
145 | CAUAG | 475 ± 63
146 | ACGAU | 414 ± 32
147 | CAUCG | 238 ± 12
148 | GAAUC | 464 ± 52
149 | CGCUU | 440 ± 56
150 | CUUCC | 359 ± 29

Row | Sequence | TdT poly-dT extension signal
151 | AGUCG | 229 ± 20
152 | GAUC | 471 ± 44
153 | GCUAU | 377 ± 20
154 | GGCUG | 287 ± 31
155 | AAGCA | 541 ± 58
156 | UGGCC | 502 ± 41
157 | GCUUU | 241 ± 19
158 | UGACC | 440 ± 21
159 | GUCC | 420 ± 38
160 | AAGGU | 522 ± 37
161 | CGCU | 427 ± 65
162 | CCUAC | 555 ± 31
163 | GCCAU | 336 ± 25
164 | UUCA | 382 ± 38
165 | CAAU | 578 ± 28
166 | GAAGU | 560 ± 32
167 | CGGAC | 589 ± 55
168 | CAUAU | 313 ± 19
169 | AACUA | 675 ± 34
170 | GCCCA | 380 ± 39
171 | AACCC | 532 ± 43
172 | UUUAG | 219 ± 19
173 | CGUA | 437 ± 38
174 | UCCGC | 1090 ± 36
175 | CGCUA | 514 ± 42

Row | Sequence | TdT poly-dT extension signal
176 | GGCGG | 310 ± 26
177 | UAAAA | 1190 ± 120
178 | GUGA | 466 ± 30
179 | CGUCC | 446 ± 24
180 | CAUGG | 217 ± 15
181 | UUGC | 843 ± 100
182 | AGGUU | 260 ± 23
183 | GGGAU | 569 ± 54
184 | UUGUG | 124 ± 20
185 | CGAGC | 1020 ± 61
186 | UAAGC | 1190 ± 89
187 | CGCAC | 915 ± 71
188 | AUCUU | 279 ± 18
189 | AUUCA | 256 ± 48
190 | GCGA | 524 ± 40
191 | ACUGA | 458 ± 33
192 | UAAUA | 555 ± 38
193 | GGUCC | 480 ± 51
194 | GCCUU | 413 ± 30
195 | UCUGA | 451 ± 45
196 | GUAA | 501 ± 29
197 | CUUAA | 575 ± 44
198 | AUGUA | 350 ± 27
199 | GGGU | 542 ± 35
200 | CCACG | 296 ± 37

Row | Sequence | TdT poly-dT extension signal
201 | UAAGU | 526 ± 23
202 | AGAGA | 827 ± 77
203 | UCGG | 302 ± 31
204 | CUCAU | 442 ± 25
205 | UAGCA | 445 ± 20
206 | UACUC | 455 ± 32
207 | UUUUA | 313 ± 20
208 | AAAAA | 1140 ± 80
209 | GGCCA | 326 ± 37
210 | AAUCA | 390 ± 17
211 | CCAUC | 499 ± 61
212 | GAGA | 676 ± 48
213 | CACC | 429 ± 42
214 | GAUA | 432 ± 34
215 | CCUUU | 264 ± 11
216 | CAUA | 591 ± 27
217 | CCCGG | 318 ± 31
218 | UCCCA | 324 ± 20
219 | ACAGU | 558 ± 38
220 | CCUUA | 372 ± 28
221 | GGGGC | 1130 ± 68
222 | CCCG | 312 ± 43
223 | CGUUG | 147 ± 15
224 | UGGU | 453 ± 25
225 | GGGAG | 398 ± 23

Row | Sequence | TdT poly-dT extension signal
226 | GGUU | 299 ± 18
227 | ACCGU | 480 ± 36
228 | AGAUC | 420 ± 47
229 | UCGUG | 242 ± 15
230 | GAUAC | 516 ± 47
231 | UCUCU | 263 ± 43
232 | UGAUC | 406 ± 17
233 | CGAAA | 972 ± 71
234 | UAUCC | 354 ± 29
235 | UGGGU | 490 ± 14
236 | AAUUG | 181 ± 17
237 | GAAGC | 1060 ± 81
238 | UUCG | 159 ± 17
239 | UGCUA | 564 ± 47
240 | ACGAG | 518 ± 62
241 | GCGAG | 518 ± 44
242 | GUGCU | 344 ± 18
243 | ACUUA | 421 ± 35
244 | AGGCA | 374 ± 33
245 | CGAUG | 257 ± 30
246 | CAUC | 460 ± 29
247 | UUAUC | 357 ± 23
248 | AAGGA | 681 ± 42
249 | AACU | 306 ± 22
250 | CCCUC | 566 ± 40

Row | Sequence | TdT poly-dT extension signal
251 | CCCAU | 552 ± 28
252 | UGUGG | 222 ± 21
253 | UUUGC | 1010 ± 63
254 | CACUU | 378 ± 26
255 | UUCCG | 175 ± 30
256 | UGAGU | 486 ± 72
257 | ACUA | 511 ± 44
258 | AGCG | 341 ± 47
259 | UACG | 231 ± 24
260 | ACAGA | 899 ± 79
261 | UUUA | 338 ± 29
262 | UGUUA | 348 ± 45
263 | UUUU | 208 ± 14
264 | AUCAC | 729 ± 63
265 | CUAUC | 340 ± 27
266 | AAGAC | 775 ± 54
267 | AAACG | 329 ± 32
268 | GUCA | 308 ± 23
269 | AGUA | 459 ± 57
270 | UAAC | 542 ± 42
271 | CGUAA | 556 ± 43
272 | CCCUG | 274 ± 14
273 | AGGGC | 1120 ± 71
274 | GUGC | 1030 ± 70
